Screen size: about 310,000 compounds; about 2,200 (0.71%) showed an effect of 50% or more. Effects have a minus sign here. This is one part of the list.

In this assay the target is human ether-à-go-go-related gene (hERG) potassium channel (human, UniProt Q12809). Kind of assay: primary screen, population patch clamp on CHO cells stably expressing hERG.
Chain of human ether-à-go-go-related gene (hERG) potassium channel (Q12809 whole entry, looked up): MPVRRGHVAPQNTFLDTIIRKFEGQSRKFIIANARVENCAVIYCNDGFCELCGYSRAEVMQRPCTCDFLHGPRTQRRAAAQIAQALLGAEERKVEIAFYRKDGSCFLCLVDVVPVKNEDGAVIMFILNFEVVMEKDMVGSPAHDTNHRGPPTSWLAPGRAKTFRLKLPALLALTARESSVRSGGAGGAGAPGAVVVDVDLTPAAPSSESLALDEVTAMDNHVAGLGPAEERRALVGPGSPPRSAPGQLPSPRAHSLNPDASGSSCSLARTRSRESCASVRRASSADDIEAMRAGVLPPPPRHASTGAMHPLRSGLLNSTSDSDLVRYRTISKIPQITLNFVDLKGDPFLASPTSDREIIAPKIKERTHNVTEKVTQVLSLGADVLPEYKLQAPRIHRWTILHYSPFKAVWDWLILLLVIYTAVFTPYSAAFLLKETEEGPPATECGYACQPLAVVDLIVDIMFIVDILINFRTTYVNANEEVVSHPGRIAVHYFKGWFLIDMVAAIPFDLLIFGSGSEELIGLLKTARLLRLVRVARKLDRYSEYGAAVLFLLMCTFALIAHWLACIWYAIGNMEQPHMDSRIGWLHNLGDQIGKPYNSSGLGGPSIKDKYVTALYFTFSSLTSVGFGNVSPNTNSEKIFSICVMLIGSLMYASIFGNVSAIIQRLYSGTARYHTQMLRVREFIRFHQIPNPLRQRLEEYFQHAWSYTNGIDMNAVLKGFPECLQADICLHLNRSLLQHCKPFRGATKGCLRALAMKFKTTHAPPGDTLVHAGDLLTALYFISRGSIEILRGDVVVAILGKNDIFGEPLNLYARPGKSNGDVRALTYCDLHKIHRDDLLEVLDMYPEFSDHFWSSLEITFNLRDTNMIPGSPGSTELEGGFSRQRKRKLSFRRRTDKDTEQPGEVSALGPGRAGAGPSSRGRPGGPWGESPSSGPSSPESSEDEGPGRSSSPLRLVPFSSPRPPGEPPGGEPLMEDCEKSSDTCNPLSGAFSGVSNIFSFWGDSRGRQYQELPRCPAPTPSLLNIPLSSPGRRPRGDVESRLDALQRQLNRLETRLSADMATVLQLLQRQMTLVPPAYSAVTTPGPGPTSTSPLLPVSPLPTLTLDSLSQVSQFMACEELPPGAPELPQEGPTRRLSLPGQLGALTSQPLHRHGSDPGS
Turning to `COc1ccccc1N1CCN(C(=S)NC(=O)/C=C/c2ccccc2)CC1`, the “hERG current change (%, negative = inhibition) at 1uM” value is on record as 3.66%. The same measure for `CCCC1Cc2c(sc(N)c2C#N)CO1` (centres unmarked): 2.23%. The same measure for `CCN(CC)P(=S)(c1c(C)nc2ccccn12)c1c(C)nc2ccccn12`: 10.3%; for `Clc1cccc(Cl)c1Cn1c(-c2cccnc2Cl)nc2ccccc21`: -5.16%; for `Cc1ccc(CSCC(=O)Nc2ccccc2C(=O)O)cc1`: 19.3%. Next, `COCc1cc(C)nc2oc(C(=O)c3ccccc3)c(N)c12`: 4.77%; `CC(=O)N1N=C(c2ccco2)CC1c1ccco1` (centres unmarked): 15.4%; `CC(C)(C)OC(=O)N1CCC2(CC1)C(C#N)=C(N)OC1=C2C(=O)CCC1`: 3.6%. Regarding `CC(Sc1nnc(NC(=O)c2cc3ccccc3oc2=O)s1)c1ccccc1` (centres unmarked), the “hERG current change (%, negative = inhibition) at 1uM” value was determined as 9.53%. The same measure for `COc1cc(N)c(Cl)cc1C(=O)OCC(=O)N1CCCC1`: 15.1%. The same measure for `O=C(O)c1ccc2c(c1)C(=O)N(NC(=O)c1ccc(O)cc1)C2=O`: 24%. Next, `COc1ccc(CNC(=O)CSc2nn3c(=O)c(C(C)(C)C)nnc3s2)cc1OC`: 3.74%. As to `Fc1ccccc1N1CCN(C2CCCN(Cc3cccc(C(F)(F)F)c3)C2)CC1` (centres unmarked), the “hERG current change (%, negative = inhibition) at 1uM” value is 6.9%. The same measure for `COc1ccccc1NC(=O)COC(=O)CNC(=O)c1ccc(OC)c(OC)c1`: 9.03%; for `CC(C)CC(C(=O)NC(=O)NCc1ccccc1)N1C(=O)c2ccccc2C1=O` (centres unmarked): 8.16%. As to `COc1ccc(S(=O)(=O)Nc2ccc(O)c(Sc3nc4ccccc4s3)c2)cc1`, the “hERG current change (%, negative = inhibition) at 1uM” value is 22.2%. In the case of `CC1CC1C(=O)OCC(=O)NNC(=O)COc1ccc(Br)cc1` (centres unmarked), the “hERG current change (%, negative = inhibition) at 1uM” value worked out at 7.3%. The same measure for `O=C(N/N=C/c1cccnc1)c1ccccc1[N+](=O)[O-]`: 0.672%; for `O=C(O)Cc1ccc(NC(=O)c2cnccn2)cc1`: 17.2%; for `CN1CCCCC1=NCCCn1cnc2c1c(=O)n(C)c(=O)n2C.Cl`: 7.73%. Consider `COC(=O)C1(C(=O)OC)NOC2C(=O)N(N(C)c3ncc(C(F)(F)F)cc3Cl)C(=O)C21` (centres unmarked), for which the “hERG current change (%, negative = inhibition) at 1uM” value is reported as 14.5%. Regarding `CC(=O)Cc1nsc(Nc2ccccc2)n1`, the “hERG current change (%, negative = inhibition) at 1uM” value is recorded as 11.4%. Next, `COc1cc(C2c3c(-c4ccccc4)n[nH]c3C(=O)N2c2ccc(C(=O)O)cc2)ccc1O` (centres unmarked): 12.3%; `CC1=C(C(=O)OC(C)C)C(c2ccccc2)NC(=S)N1C` (centres unmarked): 10.7%; `O=C(NC1CCN(S(=O)(=O)c2ccc(F)cc2)CC1)c1ccc(F)cc1`: 10.2%.

As for `COc1ccc(-c2n[nH]c(=S)n2/N=C/c2cccn2C)cc1`, the “hERG current change (%, negative = inhibition) at 1uM” value is on record as 11.1%.

With `COC(=O)Cn1cnc2sc(C)c(S(=O)(=O)N3CCN(c4ccccc4OC)CC3)c2c1=O`, the “hERG current change (%, negative = inhibition) at 1uM” value was found to be 1.61%. As to `CCn1c(SCC(=O)Nc2ccc3c(c2)OCO3)nnc1C(C)C`, the “hERG current change (%, negative = inhibition) at 1uM” value is 0.97%. Next, `CN(C)CCNC(=S)Nc1ccc(Cl)cc1Cl.Cl`: 1.63%; `O=C(CNC(=O)C(c1ccccc1)c1ccccc1)N/N=C\c1ccc2c(c1)OCO2`: 13.7%; `COc1ccc(OCCCN2CCCCCC2)cc1.O=C(O)C(=O)O`: -4.95%. The same measure for `O=C(NC1CCCC1)c1ccc2c(c1)N(Cc1ccccc1)CCS2`: -1.52%; for `COc1ccc(NC(=O)Nc2ccccc2OC)cc1`: 15.6%. The same measure for `CCN1CCN(c2c(C(=O)c3ccc(OC)cc3)cnc3ccccc23)CC1`: -67.9%. In the case of `Cc1cc(C)cc(C(=O)NC(CC(N)=O)c2ccc(N3CCN(C)CC3)c([N+](=O)[O-])c2)c1` (centres unmarked), the “hERG current change (%, negative = inhibition) at 1uM” value amounted to 12.7%. As for `c1ccc(-c2ncc3ccccn23)cc1`, the “hERG current change (%, negative = inhibition) at 1uM” value came out at 8.85%.

Consider `COc1ccc(Nc2ccccc2C(=O)O)cc1`, for which the “hERG current change (%, negative = inhibition) at 1uM” value amounted to 12.8%. Turning to `COc1ccc2c(C)c(CCC(=O)NC3CC3)c(=O)oc2c1`, the “hERG current change (%, negative = inhibition) at 1uM” value came to 11.2%. Next, `CCN1CC2=C(OC(N)=C(C#N)C2c2ccccc2)/C(=C\c2ccccc2)C1` (centres unmarked): 11.1%.

In the case of `Cc1ccc(S(=O)(=O)N(C)C)cc1NC(=O)COC(=O)c1c(C)noc1C`, the “hERG current change (%, negative = inhibition) at 1uM” value is 7.34%. In the case of `Cl.N=c1c2c(n(Cc3ccc(F)cc3)c3c1CCC3)CCCC2`, the “hERG current change (%, negative = inhibition) at 1uM” value is reported as 1.67%. The same measure for `COc1ccc(N2CCN(CCCNC(=S)Nc3c(C)cccc3C)CC2)cc1`: -6.51%; for `Cc1ccc(Cl)cc1-n1c(=O)cc(N2CCN(C(=O)c3ccco3)CC2)[nH]c1=O`: 12%.

On to `COc1cc(-c2nnc(SCc3ccccc3Cl)o2)cc(OC)c1OC`, for which the “hERG current change (%, negative = inhibition) at 1uM” value came out at 7.78%.

Take `Cc1cccc(C)c1NC(=O)Cn1nnnc1N`: the “hERG current change (%, negative = inhibition) at 1uM” value is listed as 8.75%. The same measure for `CC(C)N1CC=C2C(C#N)=C(N)C(C#N)(C#N)C(c3ccccc3)C2C1` (centres unmarked): -0.618%. Next, `COc1ccc(C)cc1NC(=O)CSc1nnc(COc2ccc(Cl)cc2)n1Cc1ccco1`: 7.71%. The same measure for `Cc1ccc(NC(=O)c2ccccc2OCc2c(C)noc2C)cc1S(=O)(=O)N(C)C`: 6.52%.

With `N#Cc1sc2nc(-c3cccs3)cc(-c3ccccc3)c2c1N`, the “hERG current change (%, negative = inhibition) at 1uM” value is reported as 10.1%.

Take `CN(CCc1nnc(N)s1)[N+](=O)[O-]`: the “hERG current change (%, negative = inhibition) at 1uM” value is recorded as 2.96%. On to `NC(=O)CC(NC(=O)c1ccc(Br)cc1)c1ccc(N2CCCCCCC2)c([N+](=O)[O-])c1` (centres unmarked), for which the “hERG current change (%, negative = inhibition) at 1uM” value is 7.7%. Turning to `COc1ccc(-c2cc(C)no2)cc1S(=O)(=O)NCCCN(C)Cc1ccccc1`, the “hERG current change (%, negative = inhibition) at 1uM” value is given as -0.572%. For `C(=C\c1nc(N2CCCCCC2)c2ccccc2n1)/c1ccccc1`, the “hERG current change (%, negative = inhibition) at 1uM” value is listed as 7.65%. Take `Cn1c(-c2ccccc2)cc2ccccc21`: the “hERG current change (%, negative = inhibition) at 1uM” value is given as 10%. The same measure for `Cc1cc(/C=C\c2nc(O)c([N+](=O)[O-])c(=O)[nH]2)c(C)n1-c1ccccc1`: 4.4%; for `O=C(c1ccsc1)N1CCCC(N2CCN(c3cccc(Cl)c3)CC2)C1` (centres unmarked): 0.466%. Next, `O=c1c2c3c(sc2nc2n1CCCCC2)CCCCC3`: 2.1%; `CCCNC(=O)CCc1c(C)nc2c(c(C)nn2-c2ccc(C)cc2)c1C`: 9.58%. `COc1ccc(/C=C/c2nc(N)nc(-c3ccccc3O)n2)cc1`: the “hERG current change (%, negative = inhibition) at 1uM” value is 6.02%. Consider `COc1ccc(NC(=O)CCOc2ccccc2)cc1`, for which the “hERG current change (%, negative = inhibition) at 1uM” value is reported as 10.3%. Next, `Cc1cccc(OCC(=O)Nc2ccc(N3CCN(C(=O)c4ccccc4)CC3)cc2)c1C`: 12.8%. The same measure for `Cc1ccc(C)c(-n2c(SCC(N)=O)nnc2-c2ccccn2)c1`: 7.69%. Take `O=C1NC(=S)S/C1=C\c1coc2ccccc2c1=O`: the “hERG current change (%, negative = inhibition) at 1uM” value came to 15%.

For `CCN1C(=NCCc2cccnc2)N[C@@H](c2ccccc2)[C@H](C(=O)OC)[C@H]1C`, the “hERG current change (%, negative = inhibition) at 1uM” value came to 7.53%. The same measure for `O=C(O)CSc1nc2ccccc2nc1Cc1ccccc1F`: 13.2%; for `CC1(C)N=C(N)N=C(N)N1c1cccc(CN)c1.CCS(=O)(=O)O`: 17.3%; for `COc1cccc(OCc2cc(/C=N/n3cncn3)ccc2OC)c1`: 8.8%.

On to `CC(C)(C)c1ccc(C(=O)N2CCN(S(=O)(=O)c3ccc(Br)s3)CC2)cc1`, for which the “hERG current change (%, negative = inhibition) at 1uM” value is reported as 10.7%. The same measure for `O=C(Nc1cccc(OCC(=O)N2CCOCC2)c1)c1cccc([N+](=O)[O-])c1`: 21.6%; for `COc1ccc2c(c1)c1nc3ccccc3nc1n2Cc1ccc(OC)c(OC)c1`: 15.1%; for `COc1ccc(NC(=O)c2cccc(NC3=NC4CS(=O)(=O)CC4S3)c2)cc1Cl` (centres unmarked): 11.1%. The same measure for `O=C(c1ccc(Br)o1)N1CCN(c2ncccn2)CC1`: 7.62%. Next, `COc1ccc(-c2n[nH]c(=S)n2-c2ccccc2C)cc1OC`: 12.1%. As to `COc1ccc(CNC(=O)c2cc(=O)c3c(C)cc(C)cc3o2)cc1`, the “hERG current change (%, negative = inhibition) at 1uM” value was found to be 3.27%.

For the compound `O=C(N/N=C/c1ccc(N2CCOCC2)o1)c1cccc([N+](=O)[O-])c1`, the “hERG current change (%, negative = inhibition) at 1uM” value is given as 0.36%. The same measure for `CCOc1ccc(-c2c(C(=O)N/N=C(\C)c3cccs3)nnn2-c2nonc2N)cc1`: 11.2%. With `CC(C)NC(=O)N1CC(c2ccccc2)C(c2ccc(Cl)cc2)=N1` (centres unmarked), the “hERG current change (%, negative = inhibition) at 1uM” value worked out at 9.88%. The same measure for `CCOc1ccc(C(CC(=O)O)NC(=O)c2ccco2)cc1` (centres unmarked): 3.82%; for `O=[N+]([O-])c1ccc(S(=O)(=O)NCCCc2ccccc2)cc1`: -3.64%; for `CCCCCCSc1ccc([C@H]2N[C@@](CC(C)C)(C(=O)OC)[C@H]3C(=O)N(C)C(=O)[C@@H]23)cc1.O=C(O)C(F)(F)F`: 12.5%. The same measure for `Cc1cccc(NC(=O)NNC(=O)c2ccc3ccccc3c2O)c1`: 15.9%. For `Fc1cccc(Cl)c1CNc1ccc(N2CCCC2)cc1`, the “hERG current change (%, negative = inhibition) at 1uM” value is listed as 20%. The same measure for `O=C(NCCN1CCCCC1)c1cc2ccccc2[nH]1`: -8.51%. The same measure for `COc1ccc(N2CCN(C(=O)c3ccc(OCC4CCCO4)cc3)CC2)cc1` (centres unmarked): 5.38%; for `CC(C)(C)OCC1CO1` (centres unmarked): 12.3%; for `CCCCCCCCCCCCN1C/C(=C\C(=O)OCC)c2ccccc2S1(=O)=O`: 10.9%. The same measure for `CC12CCC(C(=O)N(CSC(=S)N/N=C\c3ccccc3)C1=O)C2(C)C` (centres unmarked): 11%; for `O=C(O)CCNS(=O)(=O)c1cccc(Br)c1`: 8.05%; for `COc1cc(/C=N/Nc2ccccn2)cc(OC)c1O`: 6.2%.
